# In the supplement of paper PMC8728848:
# This is one part of the list.
# B1: MGL1 (Mus musculus), P49300 (protein)
# chain: MIYENLQNSRIEEKTQEPGKAPSQSFLWRILSWTHLLLFSLGLSLLLLVVVSVIGSQNSQLRRDLGTLRATLDNTTSKIKAEFQSLDSRADSFEKGISSLKVDVEDHRQELQAGRDLSQKVTSLESTVEKREQALKTDLSDLTDHVQQLRKDLKALTCQLANLKNNGSEVACCPLHWTEHEGSCYWFSESEKSWPEADKYCRLENSHLVVVNSLEEQNFLQNRLANVVSWIGLTDQNGPWRWVDGTDFEKGFKNWAPLQPDNWFGHGLGGGEDCAHITTGGPWNDDVCQRTFRWICEMKLAKES
# How the values were obtained:
# Experiment in all cases: glycan array binding signal (z-score within array); higher = stronger binding
# Conditions in all cases: glycan notation: IUPAC condensed, linker removed
# [1] = target: GlcNAc(b1-6)Gal(b1-4)GlcNAc
# Method in brief: (§1)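 The Consortium for Functional Glycomics database supplied 3228 glycan arrays, of which those lacking an available protein sequence were dropped. The binding signal, a within-array Z-score, was averaged across arrays of the same protein sequence and across linkers. Negative scores can be read as non-binding.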
# GlcNAc(b1-6)GalNAc = target: GlcNAc(b1-6)GalNAc
# Method in brief: as §1
# [2] = target: GlcNAc6S(b1-3)Gal(b1-4)GlcNAc
# Method in brief: as §1
# Kdn(a2-3)Gal(b1-3)GalNAc = target: Kdn(a2-3)Gal(b1-3)GalNAc
# Method in brief: as §1
# Kdn(a2-3)Gal(b1-3)GlcNAc = target: Kdn(a2-3)Gal(b1-3)GlcNAc
# Method in brief: as §1
# Kdn(a2-3)Gal(b1-4)Glc = target: Kdn(a2-3)Gal(b1-4)Glc
# Method in brief: as §1
# Kdn(a2-3)Gal(b1-4)GlcNAc = target: Kdn(a2-3)Gal(b1-4)GlcNAc
# Method in brief: as §1
# [3] = target: Kdn(a2-3)Gal(b1-4)[Fuc(a1-3)]GlcNAc
# Method in brief: as §1
# Kdn(a2-6)Gal(b1-4)GlcNAc = target: Kdn(a2-6)Gal(b1-4)GlcNAc
# Method in brief: as §1
# [4] = target: Man(a1-2)Man(a1-2)Man(a1-3)Man
# Method in brief: as §1
# [5] = target: Man(a1-2)Man(a1-2)Man(a1-3)[Man(a1-2)Man(a1-3)[Man(a1-2)Man(a1-6)]Man(a1-6)]Man(b1-4)GlcNAc(b1-4)GlcNAc
# Method in brief: as §1
# [6] = target: Man(a1-2)Man(a1-2)Man(a1-3)[Man(a1-2)Man(a1-6)[Man(a1-3)]Man(a1-6)]Man(b1-4)GlcNAc(b1-4)GlcNAc
# Method in brief: as §1
# [7] = target: Man(a1-2)Man(a1-2)Man(a1-6)[Man(a1-3)]Man
# Method in brief: as §1
# Man(a1-2)Man(a1-3)Man = target: Man(a1-2)Man(a1-3)Man
# Method in brief: as §1
# [8] = target: Man(a1-2)Man(a1-3)[Man(a1-2)Man(a1-6)]Man
# Method in brief: as §1
# [9] = target: Man(a1-2)Man(a1-3)[Man(a1-2)Man(a1-6)]Man(a1-6)[Man(a1-2)Man(a1-2)Man(a1-3)]Man
# Method in brief: as §1
# [10] = target: Man(a1-2)Man(a1-3)[Man(a1-2)Man(a1-6)]Man(a1-6)[Man(a1-2)Man(a1-2)Man(a1-3)]Man(b1-4)GlcNAc(b1-4)GlcNAc
# Method in brief: as §1
# [11] = target: Man(a1-2)Man(a1-3)[Man(a1-3)[Man(a1-6)]Man(a1-6)]Man(b1-4)GlcNAc(b1-4)GlcNAc
# Method in brief: as §1
# [12] = target: Man(a1-2)Man(a1-3)[Man(a1-6)]Man(a1-6)[Man(a1-2)Man(a1-3)]Man(b1-4)GlcNAc(b1-4)GlcNAc
# Method in brief: as §1
# [13] = target: Man(a1-2)Man(a1-6)[Man(a1-3)]Man(a1-6)[Man(a1-2)Man(a1-2)Man(a1-3)]Man
# Method in brief: as §1
# [14] = target: Man(a1-2)Man(a1-6)[Man(a1-3)]Man(a1-6)[Man(a1-2)Man(a1-2)Man(a1-3)]Man(b1-4)GlcNAc(b1-4)GlcNAc
# Method in brief: as §1
# Man(a1-3)[Man(a1-6)]Man = target: Man(a1-3)[Man(a1-6)]Man
# Method in brief: as §1
# [15] = target: Man(a1-3)[Man(a1-6)]Man(a1-6)[Man(a1-2)Man(a1-3)]Man(b1-4)GlcNAc(b1-4)GlcNAc
# Method in brief: as §1
# [16] = target: Man(a1-3)[Man(a1-6)]Man(a1-6)[Man(a1-3)]Man
# Method in brief: as §1
# [17] = target: Man(a1-3)[Man(a1-6)]Man(a1-6)[Man(a1-3)]Man(b1-4)GlcNAc(b1-4)GlcNAc
# Method in brief: as §1
# [18] = target: Man(a1-3)[Man(a1-6)]Man(b1-4)GlcNAc(b1-4)GlcNAc
# Method in brief: as §1
# [19] = target: Man(a1-3)[Man(a1-6)]Man(b1-4)GlcNAc(b1-4)[Fuc(a1-6)]GlcNAc
# Method in brief: as §1
# Man(a1-6)Man = target: Man(a1-6)Man
# Method in brief: as §1
# Man(b1-4)GlcNAc = target: Man(b1-4)GlcNAc
# Method in brief: as §1
# MurNAc(b1-4)GlcNAc = target: MurNAc(b1-4)GlcNAc
# Method in brief: as §1
# Neu5Ac(a2-3)Gal = target: Neu5Ac(a2-3)Gal
# Method in brief: as §1
# [20] = target: Neu5Ac(a2-3)Gal(b1-3)GalNAc
# Method in brief: as §1
# [21] = target: Neu5Ac(a2-3)Gal(b1-3)GalNAc(b1-3)Gal(a1-4)Gal(b1-4)Glc
# Method in brief: as §1
# [22] = target: Neu5Ac(a2-3)Gal(b1-3)GalNAc(b1-4)[Neu5Ac(a2-3)]Gal(b1-4)Glc
# Method in brief: as §1
# [23] = target: Neu5Ac(a2-3)Gal(b1-3)GalNAc(b1-4)[Neu5Ac(a2-8)Neu5Ac(a2-3)]Gal(b1-4)Glc
# Method in brief: as §1
# [24] = target: Neu5Ac(a2-3)Gal(b1-3)GalNAc6S
# Method in brief: as §1
# [25] = target: Neu5Ac(a2-3)Gal(b1-3)GlcNAc
# Method in brief: as §1
binder,measurement,setting,value
B1,glycan array binding signal (z-score),[1],-0.234
same,glycan array binding signal (z-score),GlcNAc(b1-6)GalNAc,0.042
same,glycan array binding signal (z-score),[2],-0.476
same,glycan array binding signal (z-score),Kdn(a2-3)Gal(b1-3)GalNAc,-0.08
same,glycan array binding signal (z-score),Kdn(a2-3)Gal(b1-3)GlcNAc,-0.559
same,glycan array binding signal (z-score),Kdn(a2-3)Gal(b1-4)Glc,0.226
same,glycan array binding signal (z-score),Kdn(a2-3)Gal(b1-4)GlcNAc,0.121
same,glycan array binding signal (z-score),[3],0.025
same,glycan array binding signal (z-score),Kdn(a2-6)Gal(b1-4)GlcNAc,-1.03
same,glycan array binding signal (z-score),[4],-0.171
same,glycan array binding signal (z-score),[5],-0.167
same,glycan array binding signal (z-score),[6],-0.136
same,glycan array binding signal (z-score),[7],-0.582
same,glycan array binding signal (z-score),Man(a1-2)Man(a1-3)Man,-0.539
same,glycan array binding signal (z-score),[8],-0.06
same,glycan array binding signal (z-score),[9],-0.381
same,glycan array binding signal (z-score),[10],-0.432
same,glycan array binding signal (z-score),[11],-0.147
same,glycan array binding signal (z-score),[12],0.311
same,glycan array binding signal (z-score),[13],-0.253
same,glycan array binding signal (z-score),[14],-0.875
same,glycan array binding signal (z-score),Man(a1-3)[Man(a1-6)]Man,-0.167
same,glycan array binding signal (z-score),[15],-0.175
same,glycan array binding signal (z-score),[16],0.117
same,glycan array binding signal (z-score),[17],-0.523
same,glycan array binding signal (z-score),[18],-0.089
same,glycan array binding signal (z-score),[19],-0.296
same,glycan array binding signal (z-score),Man(a1-6)Man,-0.85
same,glycan array binding signal (z-score),Man(b1-4)GlcNAc,-0.513
same,glycan array binding signal (z-score),MurNAc(b1-4)GlcNAc,-0.629
same,glycan array binding signal (z-score),Neu5Ac(a2-3)Gal,-0.346
same,glycan array binding signal (z-score),[20],-0.075
same,glycan array binding signal (z-score),[21],0.175
same,glycan array binding signal (z-score),[22],-0.374
same,glycan array binding signal (z-score),[23],-0.511
same,glycan array binding signal (z-score),[24],-0.6
same,glycan array binding signal (z-score),[25],-0.296
